According to the RNAGym collection of RNA variant scans (doi:10.1093/nar/gkz1192):
Read counts are not given, so values of variants with three or more changes are uncertain.

B1: CPEB3 Ribozyme (parent)
chain: UAACAGGGGGCCACAGCAGAAGCGUUCACGUCGCAGCCCCUGUCAGAUUCUGGUGAAUCUGCGAAUUCUGCUGUAUAUCUC

Variants of: B1
Assay: self-cleavage, relative activity (ratio to wild type); higher = more cleavage; in vitro, sequencing
Summary of the method: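 Relative activity was defined as the cleaved/total read fraction for a variant divided by the same fraction for the unmutated ribozyme. CPEB3 self-cleaving ribozyme libraries were made by rounds of error-prone PCR, barcoded, and transcribed in vitro with T7 RNA polymerase for 5 hours at 37°C, and cleavage ran through transcription plus a 15 min DNase I step before EDTA. Illumina sequencing of template-switched reverse transcripts gave the reads, and DNA sequencing mapped the barcodes. Averages come from three batches, using variants with at least 5 reads.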

Row | Variant | self-cleavage
1 | A21U C23U U26C A47G | 0.16
2 | A21U U26A U51C A64G | 0.12
3 | A21U U26G U41C U78C | 0.07
4 | A21G U31C A35G U54C U67A | 0.2
5 | A21G U48G U60A U76A | 0.17
6 | A21G U58C A77U | 0.06
7 | A21G U66C U72C | 1.24
8 | A21G U26C A28G A35G C50A U80C | 0.64
9 | A21G U31A U48A | 0.23
10 | A21G U26A U67C | 0.08
11 | A21G U26A A28G G30U U69A | 0.01
12 | A21G U41A U60C A64G | 0.27
13 | A21G U25C C34A G73U A77C | 0.09
14 | A21G U31A A45G | 0.38
15 | A21G U54C A65G | 0.33
16 | A21G U31C C38U | 0.18
17 | A21G U31C U43C | 0.3
18 | A21U A57G U58C | 0.13
19 | A21G U54C A56U | 0.22
20 | A21G U31A U49A U51C U67C U72C | 0.11
21 | A21G U48C A64G U80C | 0.19

Row | Variant | self-cleavage
22 | A21G U26C A45U A47U | 0.11
23 | A21G U60C C62U | 0.14
24 | A21G U31A G33A C37U U51A U72A | 0
25 | A21U A56U U69C | 0.09
26 | A21G U26C U74C | 0.48
27 | A21G U25C A28U A35G | 0.33
28 | A21G U25C U31C A75G U78C | 0.05
29 | A21U G36A G70A | 0.08
30 | A21U U26A A35G | 1.15
31 | A21G U41A U54C C81U | 0.12
32 | A21G U31C A64G U66G G73A | 0.12
33 | A21G U43C U60C U67A | 0.26
34 | A21G U54C A75U | 0.57
35 | A21G U26C A57U | 0.42
36 | A21G U26A A28G G46A U51A | 0.19
37 | A21U C23G A47C U60C G73A | 0.05
38 | A21G U43A A56G U69A | 0.27
39 | A21U G30U U51C U67A A75G U76A | 0.11
40 | A21G U43A U74G | 1.17
41 | A21G U54C U60A | 0.16
42 | A21G U43C A56U | 0.59

Row | Variant | self-cleavage
43 | A21G U43C A56G | 0.16
44 | A21G U31G U54A C62A A65G | 0.1
45 | A21G U72C U74C | 0.14
46 | A21U U25C U41C A57C | 0.11
47 | A21U A45G U51C | 0.16
48 | A21G U26A A45G | 0.23
49 | A21G U26C U76C | 0.26
50 | A21U G24C A57G | 0.19
51 | A21G U49C U67A | 0.2
52 | A21G U31C U51C A64G U67C | 0.11
53 | A21G U76C A77U | 0.75
54 | A21G U54C A64G | 0.41
55 | A21G U31G U67A | 0.29
56 | A21G U41C U60A A64U | 0.13
57 | A21G U25C A45C U60C U72C U76C | 0.11
58 | A21U U43A U54A C68A | 0.23
59 | A21U U26C U31C U60A U69A A75G | 0.3
60 | A21G U41C G52C | 0.28
61 | A21U C40U A45U | 0.08
62 | A21G U25C G33A U43C U54C | 0.07
63 | A21G U49C G53U | 0.5

Row | Variant | self-cleavage
64 | A21G U26G A75G | 0.27
65 | A21G U25C C62A | 0.07
66 | A21G U26A G55U U78C | 0.24
67 | A21G U25C A77G U78C | 0.08
68 | A21G U26C U31C U69C | 0.17
69 | A21G U54G C71A U74C | 0.13
70 | A21G U58C C71G U72C | 0.14
71 | A21U U41A A57G U69C U80G | 0.13
72 | A21G U25C C40A U51A C62U | 0.11
73 | A21G U25C C34U U48C U66C | 0.13
74 | A21U A57G A64U U78C | 0.12
75 | A21G U25C A45G U60A A64G U80C | 0.29
76 | A21G U25C U74C | 0.3
77 | A21U A28G U60C | 0.08
78 | A21U G52A U67C | 0.13
79 | A21G U25C C32G | 0.14
80 | A21G U25C A64G | 0.27
81 | A21G U41A U48C G70A U72G | 0.09
82 | A21G U51A A56U | 0.29
83 | A21G U54C U60A U72A | 0.12
